Screen size: about 150,000 compounds; about 540 (0.36%) showed an effect of 50% or more. This is one part of the list.
What follows are compounds tested on Plasmodium falciparum (assay: Primary screen in NF54 nanoGlo assay, in single point, at 2uM, 72h; a lower Z score goes with more inhibition). Settings: timepoint 72 hour.
Format: functional, Erythrocyte

| Structure (SMILES) | % Inhibition [%] | Z score |
| --- | --- | --- |
| Clc1ccc(-c2noc(CN3CCc4ccccc43)n2)cc1 | -5 | 0.52 |
| O=C(CCc1cc2n(n1)CCN(C1Cc3ccccc3C1)C2)N1CCCC1 | -7 | 1.28 |
| c1ccc(-c2nc(Cc3nc4ccccc4[nH]3)no2)cc1 | -27 | 2.42 |
| COCCC(=O)NCC1CC12CCc1ccccc12 (configuration not stated) | -13 | 2.45 |
| O=C(CCc1ccc(Cl)c(C(F)(F)F)c1)N1CC[C@H](N2CCc3ccccc3C2)C1 | 50 | -7.74 |
| CO[C@@H](C)CS(=O)(=O)Nc1cc(Cl)ccc1Br | 4 | -0.4 |
| Cc1nn(C)c(C)c1C1OCCC1CNCc1csc(C2CC2)n1 (configuration not stated) | -8 | 0.75 |
| Cc1ccc(N(CC(=O)N2CCN(Cc3ccc4c(c3)OCO4)CC2)S(=O)(=O)N(C)C)cc1 | 8 | -0.76 |
| CC1=NN(c2ccccc2)C(=O)C12Cc1cc(C(F)(F)F)ccc1N1CCN(Cc3ccccc3)CC12 (configuration not stated) | 6 | -0.77 |
| O=C(CN1CCN(c2ccccc2F)C1=O)N1CCC(Oc2ccncc2Cl)CC1 | -2 | 0.31 |
| Cc1nc(N2CCC(C(=O)NC[C@H]3CCS(=O)(=O)C3)CC2)nc2ccc(C(C)C)cc12 | -3 | 0.33 |
| CC(NCC(C)N1CCOCC1C)c1cnn(C(C)C)c1 (configuration not stated) | 1 | -0.14 |
| CCn1c(=O)c2cc(C(=O)Nc3ccc(OC)c(C(F)(F)F)c3)nn2c2ccccc21 | -11 | 1.12 |
| CC(=O)Nc1ccc(S(=O)(=O)NCCc2csc(C)n2)cc1 | 3 | -0.5 |
| COC(C)C(=O)NC1CC(O)C1(C)C (configuration not stated) | -4 | 0.63 |
| Cn1ncnc1NC(=O)CCCNC(=O)OC(C)(C)C | -5 | 0.74 |
| Cc1ccc(-n2nc(C(=O)NCCN3CCOCC3)c(=O)n(Cc3ccccc3)c2=O)cc1 | -8 | 1.32 |
| CCOc1cccc(CNCCCOC)c1 | -3 | 0.39 |
| O=C(c1cccs1)N1CCC(C(=O)N2CCCc3cc(S(=O)(=O)N4CCCC4)ccc32)CC1 | -11 | 2.05 |
| CC(C)(NCc1nccc(N)n1)c1ccccc1Br | 3 | -0.67 |
| CCN(CCNC(=O)Cc1ccc(OC)cc1)C1CC1 | -6 | 0.8 |
| COc1ccc2c(c1NC(=O)c1ccon1)CCC2 | -13 | 1.29 |

| Structure (SMILES) | % Inhibition [%] | Z score |
| --- | --- | --- |
| O=C(NC1CC2CC2C1)C1CCCCS1(=O)=O (configuration not stated) | -4 | 0.46 |
| COc1c[nH]c(C(=O)Nc2ccn3nnnc3c2)cc1=O | 3 | -0.37 |
| Cc1ncc2ccc(C(=O)N3CCc4c(cccc4NS(C)(=O)=O)C3)cn12 | -10 | 1.32 |
| Cc1nn(C)cc1C(C)NC(=O)N1CC(O)CC1c1cccc(F)c1 (configuration not stated) | 3 | -0.4 |
| C[C@@H](CCc1ccccc1)NC(=O)NCCCN1CCCC1=O | -8 | 1.03 |
| Cc1ccc(C)c(NC(=O)[C@H]2CCCN(S(=O)(=O)c3c[nH]c(C(=O)N4CCCCCC4)c3)C2)c1 | -4 | 0.45 |
| Cc1ccc(CN2CCN(C(=O)Nc3ccc(Cl)cc3)c3cccnc32)cc1 | -15 | 1.77 |
| CCc1nnc(Nc2cccc3c2OCC[C@@H]3O)nc1CC | 11 | -1.36 |
| Cc1nc(N2CCC[C@H](C(=O)Nc3cccc(C(F)(F)F)c3)C2)c2c(C)c(C)oc2n1 | -2 | 0.16 |
| COc1ccc(NS(=O)(=O)c2ccc3oc(Nc4ccc5c(c4)OCCO5)nc3c2)cc1 | -18 | 3.32 |
| O=C(C[C@H]1COCCN1)Nc1ccccc1OCCc1ccccn1 | 11 | -1.62 |
| CCCC(=O)N1CCS(=O)(=O)CC1 | -21 | 2.64 |
| O=C1N(C2CCOCC2)C[C@H]2CN(Cc3ccccc3F)CCN12 | 0 | -0.03 |
| O=C(Nc1cnc2ccccc2c1O)N1CCCC1 | -16 | 2.92 |
| O=S(=O)(CCc1nnc(-c2ccc(Br)cc2)o1)c1ccc(Cl)cc1 | 0 | 0.02 |
| Cc1cc(C(=O)N(Cc2cnn(C)c2)C2CCCCC2)c(=O)[nH]c1C | -6 | 1.13 |
| CCOc1ccc(NC(=O)C[C@H]2CC(C)(C)OC2=O)cc1 | -15 | 1.88 |
| COc1cccc(NC(=O)Cn2c(C)ccc(NS(=O)(=O)c3ccc(C)cc3)c2=O)c1 | 74 | -9.85 |
| Cc1noc(C)c1N(C)Cc1ccccc1C(=O)O | -13 | 1.92 |
| Cc1ccc(NC(=O)N2CCC[C@H](OCc3ccccc3C)C2)cc1 | 15 | -1.67 |
| O=C(O)c1cccc(CN2CC(Cc3ccccc3Cl)C2)c1 | -7 | 0.88 |
| COc1cccc(CN2CC3(CCN(C(=O)c4ccc(F)cc4)CC3)CC2=O)c1 | -20 | 1.88 |

| Structure (SMILES) | % Inhibition [%] | Z score |
| --- | --- | --- |
| CN(C)c1cccc(C(=O)N2CCN([C@@H](c3ccccc3)c3ccc(Cl)cc3)CC2)c1 | 4 | -0.58 |
| CCCN(Cc1cccnc1)C(=O)c1cccc(=O)[nH]1 | 7 | -1.18 |
| CCOc1ccc(-c2cc3c(=O)n(Cc4cc(C)ccc4C)ccn3n2)cc1 | 7 | -0.87 |
| CC(C)Oc1ccc(NCC(=O)N[C@@H](C)c2cccs2)cc1C(N)=O | -5 | 0.64 |
| Cc1noc(-c2nn(C)c3c2CN(C(=O)COc2ccc(F)cc2)CC3)n1 | 1 | -0.1 |
| Cc1cccc(C(=O)N2C(C(=O)NCC3CCCO3)COC23CCN(C(=O)c2ccccc2C)CC3)c1 (configuration not stated) | -9 | 1.52 |
| Cc1sc(NC(N)=O)nc1Cc1ccccc1 | 34 | -4.58 |
| CCc1cccc(NC(=O)Cn2cc(-c3ccccc3)c3ncn(C4CC4)c(=O)c32)c1 | -6 | 0.9 |
| Cc1c(C(c2ccc(O)c(Br)c2)c2c(C)n(C)c3ccccc23)c2ccccc2n1C | 3 | -0.5 |
| COCc1nc(CN[C@H]2CC(C)(C)OC2(C)C)no1 | -11 | 1.27 |
| CCCCNC(=O)c1ccc(-c2ccnc3[nH]ccc23)o1 | 1 | -0.19 |
| CCOCC(=O)NCCn1ccn2nccc12 | -13 | 1.63 |
| Cc1noc(Cl)c1CCC(=O)N(C)c1nccs1 | -10 | 0.98 |
| CCn1cc(C(=O)NCCS(=O)(=O)CC)cn1 | 8 | -1.03 |
| COc1cccc(CN2CCC[C@@]3(CCN(Cc4ccccn4)C3)C2)c1OC | -4 | 0.43 |
| O=C(CNc1cccc(C(F)(F)F)c1)OCC(=O)N1CCNC1=O | 32 | -0.58 |
| Cc1cc(C)n(CC(=O)N2Cc3cccnc3C2)n1 | -9 | 0.91 |
| COc1ccccc1C[C@@H]1CC[C@H](CN2CCCC2)O1 | -16 | 1.94 |
| COc1ccc(F)cc1S(=O)(=O)N1CCc2ncncc2C1 | -3 | 0.62 |
| C[C@H](NC(=O)N(C)CC(F)(F)F)c1cc(F)cc(F)c1 | -6 | 0.62 |
| Cc1ccc(Cn2ccnc2C(=O)N2CCCC2)cc1 | 1 | -0.19 |
| O=C(NCc1cn2c(n1)C(=O)N(Cc1ccccc1)CC2)c1cn[nH]c1 | -8 | 1.11 |

| Structure (SMILES) | % Inhibition [%] | Z score |
| --- | --- | --- |
| Cc1ccc(F)cc1CN1CCC(NC(=O)c2cnn(C)c2)CC1 | 1 | -0.16 |
| C[C@@H](CCc1ccccc1)NC(=O)C(C)(C)C | -2 | 0.34 |
| O=C(Nc1cnc(Oc2ccccc2)nc1)C1CCCC1 | 2 | -0.45 |
| Cc1cccc(-n2nnnc2C2(N3CCCC3)CCCC2)c1 | -4 | 0.51 |
| CC(C)(C)OC(=O)N1CCC(c2cnc(N)s2)CC1 | -4 | 0.63 |
| CC(C)CNC(=O)c1cn2ccnc(-c3ccc(F)cc3)c2n1 | -20 | 3.13 |
| CCOc1ncccc1NCc1cccc(OCCOC)c1 | -13 | 1.12 |
| CN1CCC(N(CCc2ccccc2)Cc2cncn2C2CC2)CC1 | -16 | 1.76 |
| NC(=O)c1cccnc1NCC1(CO)CCOCC1 | -1 | 0.09 |
| Cc1c(F)cccc1C(=O)N[C@@H]1CCCC[C@H]1S(C)(=O)=O | -14 | 2.15 |
| CCCn1c(=O)c2sc(N3CCCCC3)nc2n(CC(=O)Nc2ccc3c(c2)OCCO3)c1=O | -27 | 2.38 |
| O=C(c1nccnc1-c1nc2ccccc2s1)N1CCCCCC1 | -9 | 1.17 |
| O=C(NCc1ccc[nH]1)C(=O)Nc1ccc2c(c1)CCC2 | -4 | 0.57 |
| O=C(NCc1cccnc1)c1nc(-c2ccnc(N3CCCC3)c2)no1 | -3 | 0.46 |
| Cc1nc(C2CC2)ncc1C(=O)NCCCN1CCCC1=O | -8 | 1.12 |
| Cc1nnc(N2CCC(NC(=O)c3ccccc3)CC2)c(C#N)c1C | -12 | 2.37 |
| Cc1nccc(-c2cc(O)cc(CC[C@H]3CCCCN3)c2)n1 | -12 | 2.52 |
| COc1ccccc1C1CCC(C)CN1S(=O)(=O)CCCC#N (configuration not stated) | -16 | 1.65 |
| CN(Cc1nccs1)C(=O)c1cc(CCc2ccccc2)no1 | -8 | 1.12 |
| CN(c1ccnc(C(=O)N2CCN(Cc3ccccc3)CC2)c1)S(=O)(=O)c1ccccc1 | -12 | 1.97 |

Reference: ChEMBL document CHEMBL4888484, “Replenishing the malaria drug discovery pipeline: Screening and hit evaluation of the MMV Hit Generation Library 1 (HGL1) against asexual blood stage Plasmodium falciparum ,using a nano luciferase reporter read-out” (2022)
